# According to PubChem BioAssay AID686978 (National Center for Advancing Translational Sciences (NCATS), 2013):
# Several values for one entry are separate records, joined by “and”; a condition that tells them apart may be missing. Identical values can stand only once. Among all 420,000 compounds or so, about 64,000 (15%) were called active. The inconclusive results got no clear call from the source; some entries with a clear call stand among them for comparison. Calls come from the whole dose curve; as a rule, active = well fitted inhibition curve with a large enough effect; inconclusive = small, poorly fitted or top-dose-only effect; inactive = flat fitted curve, though single readings scatter. A potency beside an inconclusive call is a rough fit, not a confirmed value.
# Test: qHTS for Inhibitors of human tyrosyl-DNA phosphodiesterase 1 (TDP1): qHTS in cells in absence of CPT; note: nearly all actives have a fitted effect of over 55% in size
# Details: DT40 Tdp1-/- hTDP1 cells, no CPT, ATP luminescence, 48 h
# Method in brief: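 Readout: luminescence from CellTiter-Glo after 30 min in the dark at RT. Cells: DT40 Tdp1-/- with stable hTDP1, 400/well. Exposure: compounds alone, ≥48 hr, 37 °C.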
# [1] = activity change, negative = growth inhibition: at 46.2 µM (top of the series) unless noted
# % is set by controls: 0 for no effect and ±100 for the full control effect; potency is the fitted concentration of half-maximal effect; tags give direction and shape of the fitted curve.
smiles,measurement,setting,value
O=C(NNC(=O)c1ccc(O)cc1O)c1ccc(Cl)cc1,Potency,[1],"inconclusive: 18.4 µM [inhibitor, single point]"
CCCCCOC(=O)Cn1c(N2CCCCCC2)nc2c1c(=O)[nH]c(=O)n2C,Potency,[1],"inconclusive: 18.4 µM [inhibitor, partial curve, poor fit]"
COc1cc(OC)cc(C(=O)N[C@H](C(=O)NC2=NCCS2)C(C)C)c1,Potency,[1],inactive
Cc1cccc(N2C(=O)N3[C@H]4c5ccccc5OC[C@@H]4[C@@H](c4ccccc4)[C@@]3(C)C2=O)c1,Potency,[1],"inconclusive: 29.1 µM [inhibitor, single point]"
c1ccc2c(COn3nnc4ccccc43)cccc2c1,Potency,[1],"inconclusive: 23.1 µM [inhibitor, single point]"
CSc1ccccc1C(=O)C1CCCN(C(=O)c2cccc(Cn3cccn3)c2)C1 (stereo unspecified),Potency,[1],"inconclusive: 29.1 µM [inhibitor, single point]"
Cn1c(=O)c2c(ncn2Cc2nnc(N)s2)n(C)c1=O,Potency,[1],inactive
COc1ccc(C(=O)NCCc2nnc3ccc(SCC(=O)NCc4ccccc4)nn23)cc1,Potency,[1],inactive
O=C(O)c1cc(=O)[nH]c(=O)[nH]1,Potency,[1],inactive
CCCOc1cccc(C(=O)NCCCNC(=O)c2ccccn2)c1,Potency,[1],inactive
COc1cc2[nH]c(=O)n(CCC(=O)N3CCC(N4CCCCC4)CC3)c(=O)c2cc1OC,Potency,[1],inactive
CC1=NNC(=O)/C1=C\c1cn(-c2ccccc2)nc1-c1ccccc1,Potency,[1],active: 4.11 µM
O=C(COc1cccc(NC(=O)c2ccco2)c1)c1ccc(F)cc1,Potency,[1],active: 20.6 µM
O=c1c2ccccc2oc2cc(-c3ccc4[nH]ccc4c3)ccc12,Potency,[1],active: 2.06 µM
Cc1nn(-c2ccccc2)c(N2CCCC2)c1/C=N/NC(=O)c1ccccc1O,Potency,[1],"inconclusive: 29.1 µM [inhibitor, single point]"
OCCn1ccc(-c2ccccc2OCc2ccc(F)cc2)n1,Potency,[1],active: 20.6 µM
Cc1nonc1CN(C)C(=O)c1cc(COc2ccc(F)cc2Cl)on1,Potency,[1],inactive
NC(=S)NCc1cccnc1,Potency,[1],inactive
O=C(c1ccc(Cn2c(=O)[nH]c3ccsc3c2=O)cc1)N1CCN(c2ccccc2)CC1,Potency,[1],"inconclusive: 18.4 µM [inhibitor, partial curve, poor fit]"
COc1cc(-c2cc(C(=O)Nc3cccc(C(C)=O)c3)c3ccccc3n2)cc(OC)c1OC,Potency,[1],"inconclusive: 0.0058 µM [inhibitor, full curve, poor fit]"
CC(O)(c1ccccc1)c1nc(-c2ccc(S(C)(=O)=O)cc2)cs1 (stereo unspecified),Potency,[1],"inconclusive: 23.1 µM [inhibitor, single point]"
CCC(Cc1ccccc1)NC(=O)c1oc(=O)c2ccccc2c1-c1ccccc1 (stereo unspecified),Potency,[1],"inconclusive: 18.4 µM [inhibitor, single point]"
CCOC(=O)C1(C)CCN1C(=O)c1ccc(C(=O)OC)cc1 (stereo unspecified),Potency,[1],inactive
Cc1cc2c(cc1C)C(c1ccccc1F)CC(=O)N2 (stereo unspecified),Potency,[1],"inconclusive: 5.17 µM [inhibitor, single point]"
CCC(CC)C(=O)Nc1cc(C(=O)OC)cc(C(=O)OC)c1,Potency,[1],inactive
COc1cccc(C(C(=O)NC(C)(C)C)N(C(=O)CCC(=O)Nc2cc(C)on2)C(C)(C)C)c1OC (stereo unspecified),Potency,[1],"inconclusive: 12.6 µM [inhibitor, single point]"
CC(=O)Nc1ccc(NC(=O)CCC(=O)Oc2ccc(C)cc2)cc1,Potency,[1],inactive
CCCSc1cc(N2CCN(C)CC2)nc(-c2ccc(OC)cc2)n1,Potency,[1],"inconclusive: 20.6 µM [inhibitor, single point]"
CC1CN(C(=O)COC(=O)[C@@H](NC(=O)c2ccccc2Cl)C(C)C)CC(C)O1 (stereo partly specified),Potency,[1],"inconclusive: 20.6 µM [inhibitor, partial curve]"
CC(=O)c1ccc(N2CCN(C(=O)[C@H](C)NC(=O)c3ccccc3Cl)CC2)cc1,Potency,[1],"inconclusive: 25.9 µM [inhibitor, single point]"
Cc1cc(C(=O)N/N=C/c2c(C)nn(-c3ccccc3)c2Cl)n[nH]1,Potency,[1],"inconclusive: 29.1 µM [inhibitor, single point]"
CC(C)(C)C(=O)Nc1ccccc1C(=O)OCC(=O)c1ccc2c(c1)OCCO2,Potency,[1],"inconclusive: 18.4 µM [inhibitor, single point]"
CC(=O)Nc1ccc(NC(=S)NC(=O)/C=C/c2ccco2)cc1,Potency,[1],"inconclusive: 14.6 µM [inhibitor, partial curve]"
Cc1ccc(S(=O)(=O)N(C)CC(=O)OCC(=O)NC(c2ccccc2)c2ccccc2)cc1,Potency,[1],inactive
CCOC(=O)c1cccc(NC(=O)NCCc2c(C)nn(C)c2C)c1,Potency,[1],"inconclusive: 18.4 µM [inhibitor, single point]"
COc1ccc2nc(NC(=O)c3ccc(S(=O)(=O)N4CCC(C)CC4)cc3)sc2c1,Potency,[1],"inconclusive: 25.9 µM [inhibitor, single point]"
COC(=O)c1ccccc1NC(=O)c1noc2c1CSc1ccccc1-2,Potency,[1],inactive
CC1(C)SC[C@H](C(=O)Nc2cccc(Cl)c2)N1C=O,Potency,[1],inactive
CCOc1cc(C=NNC(=O)N(c2ccccc2)c2ccccc2)ccc1O,Potency,[1],active: 16.4 µM
CCOc1ccccc1N(C(=O)c1ccccc1Cl)C1=NC(C)(C)CS1,Potency,[1],"inconclusive: 29.1 µM [inhibitor, single point]"
O=[N+]([O-])c1cccc(-c2ccc(/C=N/NC(=S)Nc3cccc(F)c3)o2)c1,Potency,[1],active: 18.4 µM
O=[N+]([O-])c1cccc(/C=N/N2CCN(c3ccccn3)CC2)c1,Potency,[1],"inconclusive: 29.1 µM [inhibitor, single point]"
COc1ccc(NC(=O)COC(=O)[C@@H](NC(=O)c2c(F)cccc2F)C(C)C)cc1,Potency,[1],"inconclusive: 29.1 µM [inhibitor, single point]"
CCn1c(=N)c(C(=O)NCc2cccnc2)cc2c(=O)n3cc(C)ccc3nc21,Potency,[1],inactive
CC(=O)c1c(C)[nH]c(C(=O)OCC(=O)Nc2c(C)cccc2C)c1C,Potency,[1],active: 13 µM
O=C1CC(c2cc(F)ccc2F)c2cc3c(cc2N1)CCC3 (stereo unspecified),Potency,[1],active: 3.66 µM
CSCCC(NC(=O)COc1ccccc1)C(=O)N1CCN(c2ccccc2O)CC1 (stereo unspecified),Potency,[1],"inconclusive: 23.1 µM [inhibitor, single point]"
COC(=O)c1sccc1NC(=O)Nc1ccccc1Cl,Potency,[1],inactive
Cc1noc(C)c1S(=O)(=O)N(C)C[C@H]1Oc2c(NC(=O)NC(C)C)cccc2C(=O)N([C@H](C)CO)C[C@@H]1C,Potency,[1],inactive
COC(=O)c1cc2occc2n1CC(=O)Nc1cccc(SC)c1,Potency,[1],inactive
O=C(Cc1cccs1)NCCSc1c(-c2ccc(Cl)cc2)[nH]c2ccccc12,Potency,[1],active: 13 µM
O=C(Nn1c(Cc2cccs2)nc2ccccc2c1=O)c1cccs1,Potency,[1],"inconclusive: 12.6 µM [inhibitor, partial curve]"
Cc1cc(C)c2oc(=O)cc(CN3CCN(Cc4ccc5c(c4)OCO5)CC3)c2c1,Potency,[1],"inconclusive: 25.9 µM [inhibitor, partial curve, poor fit]"
Cn1c(-c2cccc(OCc3ccccc3)c2)nc2c1c(=O)[nH]c(=O)n2Cc1ccccc1,Potency,[1],active: 16.4 µM
COc1ccc(-c2nc(CSCC(=O)NCCc3ccc(C)cc3)c(C)o2)cc1OC,Potency,[1],active: 18.4 µM
COc1cc(N=Nc2ccc(Br)cc2)cc(C=O)c1O,Potency,[1],active: 4.61 µM
COc1ccccc1CNC(=O)C(=O)NCCC1CCCCN1S(=O)(=O)c1cccs1 (stereo unspecified),Potency,[1],"inconclusive: 29.1 µM [inhibitor, single point]"
CCCCC[n+]1cccc2c3ccccc3ccc21,Potency,[1],active: 0.0073 µM
COc1ccccc1N(CC(=O)NCc1ccccc1)C(=O)CCC(=O)Nc1nccs1,Potency,[1],inactive
O=C(Cn1c(=O)sc2ccccc21)Nc1nc2c(s1)CCCC2,Potency,[1],inactive
Brc1cccc(C2CC(c3ccccc3)n3nnnc3N2)c1 (stereo unspecified),Potency,[1],"inconclusive: 16.4 µM [inhibitor, single point]"
Cc1onc(-c2ccccc2)c1CNC(=O)Nc1ccc(F)cc1F,Potency,[1],"inconclusive: 18.4 µM [inhibitor, single point]"
O=C1C=C(N2CCN(c3ccccn3)CC2)C(=O)c2c(O)ccc(O)c21,Potency,[1],active: 4.11 µM
Cc1cccc(NC(=S)N(C)Cc2cn(C)c3ccccc23)c1,Potency,[1],active: 16.4 µM
COC(=O)c1ccc(S(=O)(=O)N2CCC(c3nc4ccccc4o3)CC2)cc1,Potency,[1],inactive
CCCCCC1CC(=O)N(Cc2ccccc2)C(=O)N1 (stereo unspecified),Potency,[1],"inconclusive: 6.51 µM [inhibitor, single point]"
COC(=O)C(/C=N/O)NC(=O)c1ccccc1 (stereo unspecified),Potency,[1],inactive
O=Cc1cccc(OC(=O)Nc2ccccc2)c1,"activity change, negative = growth inhibition",[1],inconclusive: -30.6% [inhibitor]
CCN(CC)CCCNC(=O)c1c(C)oc2ncnc(N3CCOCC3)c12,Potency,[1],inactive
CC(=O)Nc1ccc(-c2ccnc3c2CC(C(=O)NCc2ccc(N4CCN(C)CC4)cc2)O3)cc1 (stereo unspecified),Potency,[1],"inconclusive: 18.4 µM [inhibitor, partial curve]"
CCOC(=O)c1cc(C#N)c(N2CCOCC2)nc1-c1ccccc1,Potency,[1],"inconclusive: 11.6 µM [inhibitor, partial curve, poor fit]"
CCCCN(Cc1ccccc1)S(=O)(=O)c1ccc2c(c1)CC(C)N2C(=O)CC (stereo unspecified),Potency,[1],"inconclusive: 29.1 µM [inhibitor, single point]"
O=C(Cc1nc2ccccc2[nH]c1=O)c1ccc(Cl)cc1,Potency,[1],inactive
O=c1n(CCCN2CCN(c3cccc(Cl)c3)CC2)nc2ccccn12,Potency,[1],"inconclusive: 20.6 µM [inhibitor, single point]"
same,"activity change, negative = growth inhibition",[1],inconclusive: -32.8% [inhibitor] [at 21.1 µM]
same,"activity change, negative = growth inhibition",at 46.2 µM (top of the series),inactive: -20.2% and inactive: -21.3%
